Data: PubChem BioAssay AID463173 (ICCB-Longwood Screening Facility, Harvard Medical School, 2010)
About 1,700 (3.3%) of roughly 52,000 compounds were called active. Cut-off read from the data, not from the text of the source: active = survival mostly below about 52% (no sharp cut-off); inactive = mostly above about 56%. Some of the results follow.

Each molecule was assayed on Wild type (assay: growth inhibition of S. aureus wild type versus tarO mutant, primary screen, teichoic acid synthesis inhibitors, RN4220, OD600 (AID 463173)). Conditions: S. aureus RN4220 wild type/DeltatarO growth, OD600, 18 h, hits give low values, screened at 18.75 µg/mL (by protocol).
`CCOC(=O)C1CCN(C(=O)Cn2c(=O)oc3cc(S(=O)(=O)N4CCC(C)CC4)ccc32)CC1` was tested, and the survival was inactive: 130%.
`Cc1ccc(Cn2nnnc2CN2CCC(NC(=O)C(C)(C)C)CC2)cc1` was tested, and the survival was inactive: 122%.
With `COCCNC(=O)Cn1c(=O)n(CCCCCC(=O)NCc2ccc3c(c2)OCO3)c(=O)c2sccc21` the survival was inactive: 86%.
`CCOCCCNc1ncnc2c1cnn2-c1ccc(C)c(C)c1` was tested, and the survival was inactive: 69%.
In the case of `Cc1ccccc1NC(=O)CSc1nc2c(c(=O)n(C)c(=O)n2C)n1Cc1ccccc1F`, the survival is reported as inactive: 81%.
`Cc1cc2c(cc1S(=O)(=O)N1CCCCC1)OCC(=O)N2` was tested, and the survival was inactive: 111%.
In the case of `O=C(C1CCCCC1)N1CCN(c2ncnc3c2cnn3-c2ccccc2)CC1`, the survival is reported as inactive: 101%.
For `CCNc1nc(OC)nc(Oc2ccc(=O)[nH]n2)n1`, the survival was inactive: 67%.
In the case of `COc1ccc(-c2nc(CSc3nncn4c3cc3sccc34)c(C)o2)cc1OC`, the survival is reported as inactive: 88%.
For `O=C(CN1C(=O)CCc2cc(S(=O)(=O)N3CCOCC3)ccc21)NCc1ccccc1`, the survival was inactive: 75%.
With `CC(C)(C)c1ccc(S(=O)(=O)N2CCN(Cc3noc(CCC(=O)N4CCCCC4)n3)CC2)cc1` the survival was inactive: 73%.
`CCc1ccc(NC(=O)CSC2=Nc3ccccc3C3=NC(CCC(=O)NCc4ccco4)C(=O)N23)cc1` (stereo not given) was tested, and the survival was inactive: 66%.
`CCCNC(=O)c1ccc2nc(CCc3ccccc3)oc2c1` was tested, and the survival was inactive: 73%.
With `O=c1[nH]c2cc3c(cc2cc1CN(CCO)C(=S)Nc1cccc(Cl)c1)OCO3` the survival was inactive: 99%.
With `Cc1cc(C)cc(S(=O)(=O)c2cn(C)c3cc(N4CCCC4)c(F)cc3c2=O)c1` the survival was inactive: 81%.
In the case of `O=C1OC(c2ccccc2)=C/C1=C/c1ccco1`, the survival is reported as inactive: 133%.
For `Cc1ccc(-c2nc3sc(CCNC(=O)c4ccc(C)c(C)c4)c(C)n3n2)cc1`, the survival was inactive: 59%.
`COc1ccc(C(=O)n2nc(-c3ccco3)nc2NCc2cccs2)cc1OC` was tested, and the survival was inactive: 100%.
`CCc1ccccc1NC(=O)N(C)CCc1c(C)nn(C)c1C` was tested, and the survival was inactive: 120%.
With `CC(=O)c1cccc(NC(=O)c2cc(-c3ccc(Cl)s3)nc3ccccc23)c1` the survival was inactive: 105%.
With `CCn1c(CNC(=O)c2ccccc2)n[nH]c1=S` the survival was inactive: 125%.
With `COc1ccc(NC(=O)CC2C(=O)N(c3cccc(C)c3)C(=O)N2C2CCCCC2)cc1` (stereo not given) the survival was inactive: 80%.
`Cc1cc(/C=C(\C#N)C(=O)NCc2cccs2)c(C)n1C1CCCC1` was tested, and the survival was inactive: 112%.
`CCNc1nc2n(c(=O)n1)CCN2CC` was tested, and the survival was inactive: 129%.
For `COc1ccc(-c2nnc(SCC(=O)Nc3ccc(C(C)C)cc3)nc2-c2ccc(OC)c(OC)c2)cc1OC`, the survival was inactive: 75%.
